Assay results reported in the supplement of paper PMC12423691.
This is one part of the list. Binding of human transcription factors and regulators to the viral nucleoprotein by AlphaScreen, crude cell-free proteins, amounts not normalised, one pass. Fold of the Venus control; higher = more signal. No active / inactive call. Single-pass screen; sequences are the whole Swiss-Prot entries looked up by name.

B1: IRF8, Q02556 (protein)
chain: MCDRNGGRRLRQWLIEQIDSSMYPGLIWENEEKSMFRIPWKHAGKQDYNQEVDASIFKAWAVFKGKFKEGDKAEPATWKTRLRCALNKSPDFEEVTDRSQLDISEPYKVYRIVPEEEQKCKLGVATAGCVNEVTEMECGRSEIDELIKEPSVDDYMGMIKRSPSPPEACRSQLLPDWWAQQPSTGVPLVTGYTTYDAHHSAFSQMVISFYYGGKLVGQATTTCPEGCRLSLSQPGLPGTKLYGPEGLELVRFPPADAIPSERQRQVTRKLFGHLERGVLLHSSRQGVFVKRLCQGRVFCSGNAVVCKGRPNKLERDEVVQVFDTSQFFRELQQFYNSQGRLPDGRVVLCFGEEFPDMAPLRSKLILVQIEQLYVRQLAEEAGKSCGAGSVMQAPEEPPPDQVFRMFPDICASHQRSFFRENQQITV
B2: SNAI3, Q3KNW1 (protein)
chain: MPRSFLVKTHSSHRVPNYRRLETQREINGACSACGGLVVPLLPRDKEAPSVPGDLPQPWDRSSAVACISLPLLPRIEEALGASGLDALEVSEVDPRASRAAIVPLKDSLNHLNLPPLLVLPTRWSPTLGPDRHGAPEKLLGAERMPRAPGGFECFHCHKPYHTLAGLARHRQLHCHLQVGRVFTCKYCDKEYTSLGALKMHIRTHTLPCTCKICGKAFSRPWLLQGHVRTHTGEKPYACSHCSRAFADRSNLRAHLQTHSDAKKYRCRRCTKTFSRMSLLARHEESGCCPGP
B3: TFCP2L1, Q9NZI6 (protein)
chain: MLFWHTQPEHYNQHNSGSYLRDVLALPIFKQEEPQLSPENEARLPPLQYVLCAATSPAVKLHEETLTYLNQGQSYEIRLLENRKLGDFQDLNTKYVKSIIRVVFHDRRLQYTEHQQLEGWRWSRPGDRILDIDIPLSVGILDPRASPTQLNAVEFLWDPAKRASAFIQVHCISTEFTPRKHGGEKGVPFRVQIDTFKQNENGEYTEHLHSASCQIKVFKPKGADRKQKTDREKMEKRTAQEKEKYQPSYETTILTECSPWPDVAYQVNSAPSPSYNGSPNSFGLGEGNASPTHPVEALPVGSDHLLPSASIQDAQQWLHRNRFSQFCRLFASFSGADLLKMSRDDLVQICGPADGIRLFNAIKGRNVRPKMTIYVCQELEQNRVPLQQKRDGSGDSNLSVYHAIFLEELTTLELIEKIANLYSISPQHIHRVYRQGPTGIHVVVSNEMVQNFQDESCFVLSTIKAESNDGYHIILKCGL
B4: HMGA2, P52926 (protein)
chain: MSARGEGAGQPSTSAQGQPAAPAPQKRGRGRPRKQQQEPTGEPSPKRPRGRPKGSKNKSPSKAAQKKAEATGEKRPRGRPRKWPQQVVQKKPAQEETEETSSQESAEED

Molecular target: nucleoprotein N of Crimean-Congo hemorrhagic fever virus
Test: AlphaScreen luminescence signal relative to Venus negative control (fold); higher = stronger binding to CCHFV N
Experimental: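 AlphaScreen binding of cell-free made, FLAG-GST-tagged human transcription factors and regulators (crude translation products) to biotinylated N protein; signal as fold of the FLAG-GST-Venus control. One pass.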

Binder	AlphaScreen luminescence signal
B1	2.42
B2	1.44
B3	2.6
B4	12.7
